In PubChem BioAssay AID2546 (National Center for Advancing Translational Sciences (NCATS), 2010):
Screen size: about 310,000 compounds; about 11,000 (3.5%) were called active. The shares of active, inactive and inconclusive entries below differ from those in the screen. The call rests on the fitted dose curve; in most records, active means well fitted inhibition curve with a large enough effect; inconclusive means small, poorly fitted or top-dose-only effect, or effect the other way; inactive means flat fitted curve, though single readings scatter. No potency is given beside an inconclusive call; the fits are too rough.

Experiment: VP16 counterscreen qHTS for inhibitors of ROR gamma transcriptional activity;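 further: Gal4-VP16 expression switched on by copper sulfate through the metallothionein promoter; nearly all actives have a fitted effect of over 50% in size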
Conditions: Drosophila S2 Gal4-VP16 UAS-luciferase, luminescence, 20 h; series mostly up to 53.6 µM
Potency means the concentration at half of the fitted maximal effect; tags describe the fitted curve by direction and shape.

| SMILES | Potency |
| --- | --- |
| N/C(=N\OC(=O)c1cc(Br)ccc1Cl)c1ccccn1 | inconclusive [inhibitor, single point] |
| Cn1c(SCC(=O)NC(C)(C)C)nnc1-c1ccc(C(C)(C)C)cc1 | inconclusive [inhibitor, single point] |
| COC(=O)c1ccccc1NC1=C/C(=N\S(=O)(=O)c2ccc(C(=O)O)cc2)c2ccccc2C1=O | inconclusive [inhibitor, single point] |
| COCCCCCCCCCCCC(=O)O | inactive |
| Cc1cccc(NC(=S)N/N=C/C(C)c2ccccc2)c1C (stereo not drawn) | active: 7.94 µM |
| S=c1[nH]c2ccccc2n2cccc12 | active: 5.62 µM |
| CC(=O)c1c(C)[nH]c(C(=O)OCC(=O)Nc2cc(Cl)ccc2[N+](=O)[O-])c1C | active: 15.8 µM |
| CC(=O)c1ccc(-c2nnc(CCC(=O)N(C)Cc3c(C)nc4ccccn34)o2)s1 | inactive |
| CCCC1S/C(=N/N=C/c2cccs2)NC1=O (stereo not drawn) | active: 0.398 µM |
| CN(c1ccccc1)S(=O)(=O)c1ccc(NC(=O)c2ccccc2)cc1 | inactive |
| CC(=O)O[C@@]1(C(C)=O)CCC2C3CC(C)C4=CC(=O)CC[C@@]4(C)C3CC[C@]21C (stereo partly drawn) | inactive |
| COc1ccccc1-c1cc(Nc2ccc(F)cc2)ncn1 | inconclusive [inhibitor, single point] |
| O=C(c1ccccc1)c1ccc(N2CCN(C(=O)c3cccc(F)c3F)CC2)c(F)c1 | active: 12.6 µM |
| COc1ccc(C)cc1S(=O)(=O)N(CC(=O)Nc1ccc2c(c1)OCCO2)Cc1ccccc1 | inactive |
| O=C1C(C=NCC2CCCO2)=C(O)c2ccccc21 (stereo not drawn) | inconclusive [inhibitor, single point] |
| Cc1ccc(NC(=O)Cn2nc(C)c3ccccc3c2=O)cc1F | inactive |
| CCOc1ccccc1NC(=O)C1CCCN(S(=O)(=O)c2ccc(OC)c(C)c2)C1 (stereo not drawn) | inactive |
| O=C(CN(C(=O)c1cc2c(s1)CCC2)C1CCCC1)NCc1cccs1 | inactive |
| CN(Cc1ccco1)C(=O)c1ccc(OC2CCN(Cc3ccccn3)CC2)cc1 | inactive |
| Nc1ncnc2c1c(-c1ccc(Oc3ccccc3)cc1)cn2C1CCCC1 | inconclusive [inhibitor, single point] |
| CS(=O)(=O)N1N=C(c2ccc(Cl)cc2)CC1c1cccs1 (stereo not drawn) | inconclusive [activator, partial curve] |
| COc1ccc(/C=C(\NC(=O)c2ccccc2)C(=O)OC[C@@H]2CCC[N+]3(C)CCCCC23)cc1OC (stereo partly drawn) | inactive |
| COc1cccc(N=Nc2c(=O)[nH]n3c(=O)cc(C)[nH]c23)c1 | inactive |
| Cc1ccc(S(=O)(=O)N2CCCC(C(=O)NCCCN3CCCCC3C)C2)cc1 (stereo not drawn) | inactive |

| SMILES | Potency |
| --- | --- |
| CCOc1ccc(N2C(=O)/C(=C/c3ccc(C)o3)N(C)C2=S)cc1 | inconclusive [inhibitor, partial curve, poor fit] |
| O=C(O)[C@@H]1CCCN1c1ncnc2sc3c(c12)CCC3 | inactive |
| O=C(COc1ccc(Cl)cc1)Nc1ccccc1C(=O)NCc1ccco1 | inconclusive [inhibitor, single point] |
| Cc1ccc(C(=O)N/C(=C\c2ccc(-c3ccc([N+](=O)[O-])cc3)o2)C(=O)NC2CCS(=O)(=O)C2)cc1 (stereo not drawn) | inactive |
| C[C@@H](C(=O)NCCc1ccccc1)N1C(=O)N2CCc3c([nH]c4ccccc34)[C@@]2(C)C1=O | inactive |
| O=C(NC(=S)Nc1ccccn1)c1ccc(-c2ccccc2)cc1 | active: 3.98 µM |
| Cc1nn(Cc2ccccc2Cl)c(C)c1NC(=O)C1C2CCC(O2)C1C(=O)O (stereo not drawn) | inactive |
| CN(/N=C\c1ccc(O)c(O)c1)c1nc(-c2ccccc2)cc(-c2ccccc2)n1 | active: 3.16 µM |
| Cc1c(C(=O)OCCOc2ccccc2)[nH]c2c1C(=O)CCC2 | inconclusive [inhibitor, single point] |
| COc1cccc(-n2nnnc2SCC(=O)N2CCCc3ccccc32)c1 | inconclusive [inhibitor, single point] |
| CCOC(=O)c1c(C)oc2c1c(C=NCCO)c(O)c1ccccc12 | inconclusive [inhibitor, single point] |
| COc1ccc(C(=O)/C(=C/c2cccs2)c2nc3ccccc3o2)cc1 | inconclusive [inhibitor, full curve] |
| COc1ccc(NC2=C(C)C(=O)CC2)cc1 | inconclusive [inhibitor, single point] |
| CCOc1ccc(Nc2nc(N(C)c3ccccc3)nc(N)c2[N+](=O)[O-])cc1 | inconclusive [inhibitor, partial curve, poor fit] |
| O=C(N/N=C/c1cccc([N+](=O)[O-])c1)c1cccs1 | inconclusive [activator, full curve, poor fit] |
| CCOc1cccc2sc(N(CCCN(C)C)C(=O)c3ccc(S(=O)(=O)N4CCc5ccccc5C4)cc3)nc12 | inconclusive [inhibitor, single point] |
| O=C(NC1CCCCCCC1)c1cccc(Cl)c1 | inconclusive [activator, single point] |
| CCc1nc2oc3ccccc3c(=O)c2cc1C(=O)OC | inconclusive [activator, partial curve, poor fit] |
| CN1N=C(C(=O)N2CCCC(Nc3ccc(F)c(F)c3)C2)CCC1=O (stereo not drawn) | inactive |
| Cc1cc(C(=O)COC(=O)Cc2n[nH]c(=O)c3ccccc23)c(C)n1-c1cccc(C(F)(F)F)c1 | inconclusive [inhibitor, single point] |
| CS(=O)(=O)N(CC(=O)N1CCOCC1)Cc1ccc(Cl)cc1 | inactive |
| Cc1cc(C)cc(-n2nnc(C(=O)NCc3ccco3)c2N)c1 | inconclusive [activator, single point] |
| COc1ccc(OCC(=O)NNC(=S)NC(=O)c2ccc([N+](=O)[O-])cc2)cc1 | active: 5.62 µM |
| CC(=O)N1N=C(c2ccccc2)OC1c1ccc([N+](=O)[O-])s1 (stereo not drawn) | inconclusive [inhibitor, partial curve, poor fit] |
